T1: UNK ZnF1-3 (human, UniProt Q9C0B0 31-174)
T1 sequence: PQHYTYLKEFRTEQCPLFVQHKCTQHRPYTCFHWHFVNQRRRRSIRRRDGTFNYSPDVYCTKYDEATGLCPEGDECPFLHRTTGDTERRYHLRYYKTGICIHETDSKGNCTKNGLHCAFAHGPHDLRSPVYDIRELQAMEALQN

B1: chr10:24872911:24872912:-_ENSG00000107863_ENST00000396432|hu_hu|FALSE|FALSE (ssRNA)
RNA: GGGAGUUCUACAGUCCGACGAUCUAAUGAUAUCUGUUACCAAUAAAACGCAUUCGUUUAUUCAAUGUAAGUAAGUUAUCUAAUUUUAACAAUAUGGCACCCUAAAAACCAACUGUAUUUUUAUGAUGAGGCACUUUUGUUAGUCAACAGAGGAUUGAGCAUCA
B2: chr11:46405157:46405158:+_ENSG00000110492_ENST00000395566|hu_hu|hu_hu_hu_mus_False|8_28 (ssRNA)
RNA: GGGAGUUCUACAGUCCGACGAUCCCCUCCCCACUUUGGGCACUUGGUGUGGGCGUGAGAGGACAGGCGUGAUUGACAGAGCUGACAGGAAGACAAAAGGCACUGGUGGGUCACAUCUUGGGCCUGUGAGAGGGAGGGGCUCCGCAACAGAGGAUUGAGCAUCA
B3: chr6:36694466:36694467:-_ENSMUSG00000029838_ENSMUST00000101534|mus_mus|motif|central (ssRNA)
RNA: GGGAGUUCUACAGUCCGACGAUCCUCAGCAGUGUCCACAGCUGCCAAGAUGAAAAUCAAUGCCAGGAAGGCAGCUGCAAAUUUUCGGCGUUGCUGCUGAUAUUGCUGGGACGACAUUUUUUGGCUUGCAGAGGUCCUCGCUGACAACAGAGGAUUGAGCAUCA
B4: chr18:32917252:32917253:-_ENSG00000172466_ENST00000399061|hu_mus|FALSE|FALSE (ssRNA)
RNA: GGGAGUUCUACAGUCCGACGAUCUUCUUAAACCUUCACAACAUUCAAAAGUUUUUCUGCAUUGUGUCGUCUCUGAUGUCUGAAGAGGUUUGAGCUCUGACUGUAGGAUUUCCCACACUGCACACACUCGUAAGGUUUCUCCCCCAACAGAGGAUUGAGCAUCA
B5: chr11:72497679:72497680:+_ENSMUSG00000020794_ENSMUST00000021148|mus_hu|motif|central (ssRNA)
RNA: GGGAGUUCUACAGUCCGACGAUCAUUGCUAUAUCCAAUCCAAGAGGUGGGUGCAACUAGAAUACAAAAAGGACAAAGCACCGGGUGAUGACUCCUUCGAAGUCAUCAUUAAAAAUCAAGUAAUUGCUCAUUAAGUAUUUCAGUCAACAGAGGAUUGAGCAUCA
B6: chr7:52703327:52703328:+_ENSMUSG00000003865_ENSMUST00000003964|mus_hu|FALSE|FALSE (ssRNA)
RNA: GGGAGUUCUACAGUCCGACGAUCCACCUUCACCCUGUCGGCACUGCUAUUGAAGAGGCCGAUUCGGCGGAUGGUGGUCAGGAUGGGGUCUGAGGAGUCAUCCAGCAUAUUGUGGGUGCACACAGGGGGGAAAGACUGCCGCUGCAACAGAGGAUUGAGCAUCA
B7: chrX:71549762:71549763:+_ENSMUSG00000019087_ENSMUST00000019231|mus_mus|mus_mus_mus_hu_False|18_18 (ssRNA)
RNA: GGGAGUUCUACAGUCCGACGAUCAAACCCGUGUACUUCUUAUUGUUAGCACAACAUCACCAGAAAACGAUAACGACAGCCAAGCAGGACAGACAGUUAAGUAGUACUUCCACACUCCGCAAAUUCAGGAGCCCUAUAACCUUACAACAGAGGAUUGAGCAUCA
B8: 78181470_78183588_2034_CDS_ENSG00000077254_ENST00000357428|human|control|control (ssRNA)
RNA: GGGAGUUCUACAGUCCGACGAUCUGAAACUUCAGUGACACUCUGAUCAUCAAAUUCAUACCAGAGAUUAUUUAGAUUGUUUCGGCAGUAGGCUAUAUAGUGUCCACUACUUGCAGUUCCAUGAUGGCAAAUGACUGACAGAAGCAACAGAGGAUUGAGCAUCA
B9: 59172640_59175087_1077_CDS_ENSMUSG00000025235_ENSMUST00000026265|mouse|control|control (ssRNA)
RNA: GGGAGUUCUACAGUCCGACGAUCUAUAUCUUCCAGGUUGGUCAGAGCCACAGCCAAGAGCAUGUAGAGUUCCCCCAUCUUUGGCUGGAAGUUGAUGGCUGCACUGAGAAAAUGGAAUGCUGAUGCAUACUGCUGCAUAGUCAACAACAGAGGAUUGAGCAUCA
B10: chr3:197678047:197678048:+_ENSG00000182899_ENST00000448864|hu_hu|FALSE|FALSE (ssRNA)
RNA: GGGAGUUCUACAGUCCGACGAUCUUAAGAAGAGCUGUGUGCUCCCUUUGGUUCCGGAGACCCCGCUUAUAGCCAGCAAAAAUGGCCUUGGACCACAGCCUUCCAGACAUAGUUCCUUUUAGAAGUCCCGUUCCCAGCAGGCCGCAACAGAGGAUUGAGCAUCA
B11: chr18:58105177:58105178:+_ENSMUSG00000024597_ENSMUST00000115366|mus_mus|motif|central (ssRNA)
RNA: GGGAGUUCUACAGUCCGACGAUCUAACGUCUUGCUUGACCUGACUUGACUGUUUACUUAAAAAAAGAAAAAGAAAAAACGGAAACAACAACAAAAAAAUAUCUGUAAUCUACCAAAUCGUGAUCACUUUAAAAUCUGAAACACCAACAGAGGAUUGAGCAUCA
B12: chr3:58389919:58389920:+_ENSMUSG00000075700_ENSMUST00000107924|mus_hu|FALSE|FALSE (ssRNA)
RNA: GGGAGUUCUACAGUCCGACGAUCGCUAGGAGCUUGCAUGCCAAAGAAAGCAAAAGGAUCCUUGCCAACAAUUAUUAAGCCUAUUAAUACUAGUUUGAAGACUGACAGGAAAGAUGCUAUGUGUCUAUAUAUUGGUUGAGGGAGCAACAGAGGAUUGAGCAUCA
B13: chr8:11781157:11781158:+_ENSMUSG00000031511_ENSMUST00000110909|mus_mus|motif|central (ssRNA)
RNA: GGGAGUUCUACAGUCCGACGAUCCAAGGAGCUGAGGACCUUGUUAAAGUUCUGCCCCUGAUACAAAUCAUUUGCAUCAAAAGUCUCGGGGCGCAGGGACGCCCCGCAGGCGCGCAGGAACUCGCGGAUGUUGCUCAGGCACUCCAACAGAGGAUUGAGCAUCA
B14: chr19:16212804:16212805:+_ENSG00000167460_ENST00000300933|hu_mus|hu_hu_hu_mus_False|48_48 (ssRNA)
RNA: GGGAGUUCUACAGUCCGACGAUCAACAAUUCUGGAGUGAAGGAAAGAUGUAACAUGGAACAGCAUUAAAGCUCAGUCAGAAGGCACGUGGGUAAUUAUGAUCACCCCAGCAUUCUCGCUUGGAAUGCUUAAAGACAAUCUGUUCAACAGAGGAUUGAGCAUCA

Some of the results follow.

The target of the test is T1, UNK ZnF1-3. The test is described as follows: nsRBNS (natural sequence RNA bind-n-seq); RBNS binding buffer (assumed for nsRBNS): 25 mM Tris pH 7.5, 150 mM KCl, 3 mM MgCl2, 0.01% Triton X-100, 500 ug/ml BSA, 20 U/ml SUPERase-In, 4 C; UNK is unkempt and MSI1 is Musashi-1; names of the RNAs are library labels; protein concentration not given here; high values mean tight binding.
On to B1, for which the binding signal was 0.642 enrichment R.

For the molecule B2, the binding signal worked out at 2.37 enrichment R.

Turning to B3, the binding signal came out at 0.693 enrichment R.

On to B4, for which the binding signal amounted to 1.2 enrichment R.

Molecule B5 yielded a binding signal of 1.98 enrichment R.

B6: the binding signal worked out at 0.978 enrichment R.

Regarding B7, the binding signal amounted to 1.55 enrichment R.

B8: the binding signal was 1.27 enrichment R.

On to B9, for which the binding signal stood at 1.35 enrichment R.

B10 yielded a binding signal of 0.857 enrichment R.

As to B11, the binding signal came out at 2.7 enrichment R.

In the case of B12, the binding signal is 1.75 enrichment R.

The molecule B13 displayed a binding signal of 0.946 enrichment R.

B14 yielded a binding signal of 1.1 enrichment R.

Values taken from publication PMC12136788.
